The supplement of paper PMC4604168 (melanoma cell lines)
The other results are listed elsewhere or left out. Repeats are few or missing, and single values can be far off.

How the values were obtained:
Experiment in all cases: cell count relative to DMSO control; melanoma cells; higher = more viable cells
Conditions in all cases: library dose: low library concentration; 72 h
[1] = system: MZ2-MEL
[2] = system: MeWo
[3] = system: RPMI7951
[4] = system: RVH-421
[5] = system: SkMel28
[6] = system: SkMel2
[7] = system: SkMel30
[8] = system: SkMel5
[9] = system: UACC257
[10] = system: UACC62
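Further: cell number obtained by counting DAPI-stained nuclei in high-throughput microscope images with image analysis software, screen run in 1,536-well plates.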

Row | Structure (SMILES) | cell count [1] [%] | cell count [2] [%] | cell count [3] [%] | cell count [4] [%] | cell count [5] [%] | cell count [6] [%] | cell count [7] [%] | cell count [8] [%] | cell count [9] [%] | cell count [10] [%]
1 | CC[C@]1(O)C[C@H]2CN(CCc3c([nH]c4ccccc34)[C@@](C(=O)OC)(c3cc4c(cc3OC)N(C=O)[C@H]3[C@@](O)(C(=O)OC)[C@H](OC(C)=O)[C@]5(CC)C=CCN6CC[C@]43[C@@H]65)C2)C1 [vincristine] + Cn1cc(/C=C2\C(=O)Nc3cccnc32)c2ccccc21 [GW441756] (first compound 0.0001 µM, partner dose 0.4 µM) | 101 | 71.1 | 53.8 | 106 | 80 | 93.3 | 53.3 | 73.9 | 72.8 | 70.4
2 | Cc1cc(Nc2cc(N3CCN(C)CC3)nc(Sc3ccc(NC(=O)C4CC4)cc3)n2)n[nH]1 [Tozasertib] + O=C(O)c1ccc(-c2c[nH]c3ncc(-c4ccccc4)cc23)cc1C1CCCC1 [GSK650394] (first compound 0.006 µM, partner dose 0.16 µM) | 102 | 90.2 | 96.3 | 89.9 | 94.1 | 92.1 | 113 | 106 | 100 | 88.1
3 | N#CC[C@H](C1CCCC1)n1cc(-c2ncnc3[nH]ccc23)cn1 [ruxolitinib] + O=C(O)c1ccc(-c2c[nH]c3ncc(-c4ccccc4)cc23)cc1C1CCCC1 [GSK650394] (first compound 1 µM, partner dose 0.16 µM) | 102 | 89 | 111 | 79.2 | 103 | 111 | 114 | 98.9 | 95.5 | 120
4 | Cc1cc(Nc2cc(N3CCN(C)CC3)nc(Sc3ccc(NC(=O)C4CC4)cc3)n2)n[nH]1 [Tozasertib] + C[C@@H]1CCN(C(=O)CC#N)C[C@@H]1N(C)c1ncnc2[nH]ccc12 [CP690550] (first compound 0.006 µM, partner dose 1 µM) | 102 | 89.1 | 120 | 86.7 | 96.7 | 90.4 | 83.8 | 99.8 | 101 | 97.2
5 | N#CC[C@H](C1CCCC1)n1cc(-c2ncnc3[nH]ccc23)cn1 [ruxolitinib] + CCc1ccc(CCOc2ccc(CC3SC(=O)NC3=O)cc2)nc1 [pioglitazone] (first compound 1 µM, partner dose 2 µM) | 103 | 93.8 | 107 | 57.1 | 122 | 101 | 85.8 | 102 | 107 | 113
6 | N#CC[C@H](C1CCCC1)n1cc(-c2ncnc3[nH]ccc23)cn1 [ruxolitinib] + O=C(CCCCCCC(=O)Nc1ccccc1)NO [vorinostat] (first compound 1 µM, partner dose 0.08 µM) | 107 | 97.4 | 89.5 | 103 | 92.6 | 100 | 135 | 98.6 | 88 | –
7 | N#CC[C@H](C1CCCC1)n1cc(-c2ncnc3[nH]ccc23)cn1 [ruxolitinib] + CN(NC(=O)CC(=O)NN(C)C(=S)c1ccccc1)C(=S)c1ccccc1 [STA4783] (first compound 1 µM, partner dose 0.006 µM) | 104 | 91.2 | 114 | 62.9 | 105 | 96.9 | 96.1 | 99.2 | 85 | 123
8 | N#CC[C@H](C1CCCC1)n1cc(-c2ncnc3[nH]ccc23)cn1 [ruxolitinib] + Cn1cncc1[C@@](N)(c1ccc(Cl)cc1)c1ccc2c(c1)c(-c1cccc(Cl)c1)cc(=O)n2C [tipifarnib] (first compound 1 µM, partner dose 0.01 µM) | 108 | 89.4 | 91.4 | 84.5 | 90.9 | 87.8 | 101 | 102 | 78.8 | 94.3
9 | N#CC[C@H](C1CCCC1)n1cc(-c2ncnc3[nH]ccc23)cn1 [ruxolitinib] + Oc1nc(-c2ccc(C(F)(F)F)cc2)nc2c1CSCC2 [XAV939] (first compound 1 µM, partner dose 2 µM) | 99.4 | 111 | 92.5 | 114 | 112 | 104 | 111 | 84.7 | 82.4 | –
10 | CC[C@]1(O)C[C@H]2CN(CCc3c([nH]c4ccccc34)[C@@](C(=O)OC)(c3cc4c(cc3OC)N(C=O)[C@H]3[C@@](O)(C(=O)OC)[C@H](OC(C)=O)[C@]5(CC)C=CCN6CC[C@]43[C@@H]65)C2)C1 [vincristine] + COc1cc(N2CCC(N3CCN(C)CC3)CC2)ccc1Nc1ncc(Cl)c(Nc2ccccc2S(=O)(=O)C(C)C)n1 [NVP-TAE684] (first compound 0.0001 µM, partner dose 0.08 µM) | 109 | 64.9 | 49.3 | 86.6 | 61.2 | 95.4 | 55.2 | 73.9 | 37.4 | 38
11 | Cc1cc(Nc2cc(N3CCN(C)CC3)nc(Sc3ccc(NC(=O)C4CC4)cc3)n2)n[nH]1 [Tozasertib] + CCc1ccc(CCOc2ccc(CC3SC(=O)NC3=O)cc2)nc1 [pioglitazone] (first compound 0.006 µM, partner dose 2 µM) | 95.4 | 90.3 | 90.5 | 112 | 78.9 | 95.9 | 92.3 | 110 | 78.8 | 98.4
12 | N#CC[C@H](C1CCCC1)n1cc(-c2ncnc3[nH]ccc23)cn1 [ruxolitinib] + COc1ccc(COc2ccc(Cc3cnc(N)nc3N)cc2OC)cc1 [GW2580] (first compound 1 µM, partner dose 1 µM) | 107 | 95.3 | 95.4 | 105 | 121 | 113 | 112 | 88 | 82.4 | 89.4
13 | CC[C@]1(O)C[C@H]2CN(CCc3c([nH]c4ccccc34)[C@@](C(=O)OC)(c3cc4c(cc3OC)N(C=O)[C@H]3[C@@](O)(C(=O)OC)[C@H](OC(C)=O)[C@]5(CC)C=CCN6CC[C@]43[C@@H]65)C2)C1 [vincristine] + CCN(CC)CCCCNc1ncc2cc(-c3cc(OC)cc(OC)c3)c(NC(=O)NC(C)(C)C)nc2n1 [PD173074] (first compound 0.0001 µM, partner dose 0.1 µM) | 94.7 | 88.5 | 81.3 | 114 | 85.8 | 105 | 63.5 | 94 | 83.2 | 80.1
14 | CC[C@]1(O)C[C@H]2CN(CCc3c([nH]c4ccccc34)[C@@](C(=O)OC)(c3cc4c(cc3OC)N(C=O)[C@H]3[C@@](O)(C(=O)OC)[C@H](OC(C)=O)[C@]5(CC)C=CCN6CC[C@]43[C@@H]65)C2)C1 [vincristine] + CC(C)CCN1c2nc(Nc3cc(F)c(O)c(F)c3)ncc2N(C)C(=O)C1C [BID1870] (first compound 0.0001 µM, partner dose 0.2 µM) | 94.5 | 53.4 | 38.4 | 62.5 | 55.5 | 78.4 | 33.4 | 81.2 | 54.7 | 34.3
15 | Cc1cc(Nc2cc(N3CCN(C)CC3)nc(Sc3ccc(NC(=O)C4CC4)cc3)n2)n[nH]1 [Tozasertib] + O=c1cc(-c2cccc3c2Sc2ccccc2S3)oc(N2CCOCC2)c1 [KU55933] (first compound 0.006 µM, partner dose 1 µM) | 102 | 85.5 | 80.6 | 85.1 | 84.7 | 98.6 | 89 | 107 | 92.4 | 90.8
16 | Cc1cc(Nc2cc(N3CCN(C)CC3)nc(Sc3ccc(NC(=O)C4CC4)cc3)n2)n[nH]1 [Tozasertib] + O=C(CCCCCCC(=O)Nc1ccccc1)NO [vorinostat] (first compound 0.006 µM, partner dose 0.08 µM) | 103 | 89.3 | 114 | 97.4 | 75.5 | 92.5 | 100 | 69 | 103 | 81
17 | Cc1cc(Nc2cc(N3CCN(C)CC3)nc(Sc3ccc(NC(=O)C4CC4)cc3)n2)n[nH]1 [Tozasertib] + NCC(=O)Nc1ccc(-n2nc(C(F)(F)F)cc2-c2ccc3c(ccc4ccccc43)c2)cc1 [OSU03012] (first compound 0.006 µM, partner dose 1 µM) | 99.3 | 62.9 | 113 | 93 | 77 | 93.9 | 47.5 | 105 | 77.2 | 78.8
18 | N#CC[C@H](C1CCCC1)n1cc(-c2ncnc3[nH]ccc23)cn1 [ruxolitinib] + COC(=O)c1sccc1S(=O)(=O)Nc1ccc(Nc2ccccc2)cc1OC [GSK0660] (first compound 1 µM, partner dose 1 µM) | 93 | 104 | 93.2 | 80.6 | 104 | 105 | 97.1 | 106 | 126 | 91.3
19 | Cc1cc(Nc2cc(N3CCN(C)CC3)nc(Sc3ccc(NC(=O)C4CC4)cc3)n2)n[nH]1 [Tozasertib] + O=C(Nc1cccc(Cl)c1)Nc1ncc(CCNc2ncnc3ccsc23)s1 [SNS314] (first compound 0.006 µM, partner dose 0.0008 µM) | 102 | 89.2 | 104 | 101 | 92.1 | 101 | 105 | 90.4 | 99.8 | 83.4
20 | CC[C@]1(O)C[C@H]2CN(CCc3c([nH]c4ccccc34)[C@@](C(=O)OC)(c3cc4c(cc3OC)N(C=O)[C@H]3[C@@](O)(C(=O)OC)[C@H](OC(C)=O)[C@]5(CC)C=CCN6CC[C@]43[C@@H]65)C2)C1 [vincristine] + c1cc(-c2cnn3cc(-c4ccc(OCCN5CCCCC5)cc4)cnc23)ccn1 [Dorsomorphin] (first compound 0.0001 µM, partner dose 0.4 µM) | 80.5 | 63.1 | 37.2 | 66.6 | 55.3 | 74.4 | 40.8 | 83 | 48.9 | 39.8
